In all, about 33,000 sequences were measured (“E-score (-0.5 to 0.5)”: median about -0.01, highest 2% from about 0.26 on). The list shows a part of the results.
molecular target: Ste12 (UniProt P13574); assay: PBM E-score (8-mer binding enrichment) (E-score (-0.5 to 0.5)); higher = stronger / more preferred TF binding; most listed sequences are background and not binding sites; details: protein concentration: 200 nM; construct: GST-DNA-binding domain
Outline: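 For each ungapped eight-base word taken together with its reverse complement, the Universal PBM Analysis Suite assigned an E-score. Binding data came from GST-tagged yeast transcription factors, applied at about 100-200 nM, on universal all-10-mer Agilent arrays made double-stranded by primer extension. Fluorescent anti-GST marked bound protein, and scans were normalised with masliner.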

Sequence | PBM E-score
CCGGGTGA | 0.00512
AAGTGCGT | -0.15
CTCGGCAG | -0.0413
GTATTCAA | 0.116
AACAGAAT | 0.0107
ACGGAGCG | 0.0287
ACTTTAAT | 0.263
ATGCAGTA | 0.037
ATCCGCTG | -0.154
AACTTCCG | 0.0772
GAAAGAGA | 0.0789
ACCGTCCC | -0.0797
CTTCTAGA | 0.0489
ACCCCGGA | -0.00092
TGTACACA | 0.0305
GCACTCAA | -0.197
ATATCACG | -0.0106
CGCATAAA | 0.0157
ATTAAGAC | 0.0185
CCTGATTC | -0.0828
GCGTGTCC | -0.229
ACACATGT | 0.154
CATTCAGA | 0.184
ATCCGCTA | -0.129
ACCTGGGC | -0.288

Sequence | PBM E-score
GGTTGAAC | -0.0192
CATTAACG | 0.0567
AAGAATCA | 0.153
CCCCGGGG | -0.186
ATTTCTAC | 0.253
ACTACTTG | -0.0513
GCACGTGA | -0.119
AACTTAAC | 0.235
GAAGCACA | -0.135
CAATCCCG | 0.321
ATACCGTG | 0.0304
AACGTACT | 0.11
TCCAATAA | 0.0822
CGCCCCGC | 0.0909
ACATAGAC | 0.0996
ACACATCC | -0.0267
GACTGCAA | -0.0231
AAGGCAAT | -0.00323
ATAGCCTG | -0.0913
AAGCCCAG | 0.0302
GGTGTTGA | -0.0828
CTGACAAA | 0.091
AAAGGATT | -0.00765
CAACCACA | 0.0344
AAAAGGCA | 0.185

Sequence | PBM E-score
AAAGTGCT | 0.0194
AGCACCGA | 0.0738
ATACTGGA | 0.176
CTTCTTCC | -0.124
AGCCAACC | 0.0798
AAGACGAC | 0.00196
TGAGATCA | -0.0953
ACACTGCA | -0.172
ACGTTTGG | 0.127
ACCGGGGA | -0.0805
ATGTATCG | 0.0479
ATCAGGTG | -0.0202
GTGTAAAC | -0.114
AAGGCATC | -0.058
CTAAAGCA | 0.0923
AGAGACTC | -0.127
CGAGTGCG | -0.0316
CTAGAGTC | -0.188
AGGCAGGC | -0.144
ATGGACAA | -0.0663
AGGGTATG | -0.0375
CCAATTCC | 0.0558
ATTATCGC | 0.15
CGGAAAAA | 0.343
AACTGTGG | 0.127

Sequence | PBM E-score
CGCGTCAG | -0.202
GAGAGGAA | -0.0121
ATACTCAT | -0.0101
AATCAAAT | 0.196
ACCAGAAC | 0.189
AGAAAGGA | -0.0699
ATTTAACA | 0.181
TAAGACTA | -0.073
GAGAATCC | -0.126
GAATTTGA | 0.1
AACTCGAG | 0.146
GAAGGGAA | -0.165
CTTAATAC | 0.207
ACCTCTCC | -0.174
AAAGATCG | 0.0688
CGTCTCAG | 0.149
ACAGTGGA | -0.0823
CGAGCGTA | -0.137
CATAGCTC | -0.166
CGATGATA | -0.0622
CAGGGTCC | -0.0999
CAGATTAC | 0.0121
ACGATGTA | -0.158
CAATACCC | -0.00702
TCCGAAGA | 0.043

Sequence | PBM E-score
CGCAATAG | 0.135
CGATGGCA | 0.0478
ACCGACGG | 0.0928
AACGCATA | 0.0787
CTGTGTTC | -0.041
AGTCACAG | -0.0285
CCCCCGCA | -0.15
CAGAAAGG | -0.0302
TTACGCAA | 0.0927
AACAGTGA | 0.18
GTACAGTA | 0.0242
TGGCGAAA | 0.135
TAGCACAA | -0.0915
CTTCAATA | 0.00592
GTGATAAA | 0.131
GCGTCCAA | -0.13
TACGCTCA | -0.0351
CAGGGAAG | -0.157
CGGAGAAC | -0.175
TGTTACAA | 0.387
GTACTCGA | -0.177
GAGATCTA | 0.0239
CATATGAA | 0.176
GGAGCTAC | -0.161
ACGCTCGC | 0.15

Sequence | PBM E-score
AGAGTCTG | -0.119
AGCTAATC | 0.0509
TAGCCAGA | -0.0355
GTCCACGA | -0.134
ACAGGGAA | -0.0357
AGCCCAGC | -0.211
AATTGTAA | 0.118
GGAGTGTA | -0.0442
ATTTACCC | 0.125
ACCATAAA | 0.278
CCCAATAC | -0.0496
AAGAACCC | 0.0789
GAGTGTCA | 0.0324
AGAGTGCA | -0.0994
TAGACGAA | 0.0213
CTTAAAGA | 0.0344
CATAACAG | -0.162
AGGAACGG | 0.0512
ATTAACAC | 0.186
CTTTGGTA | -0.22
GCCCACCA | -0.0497
CCCAAGCG | -0.184
AACTTGTA | -0.0176
ATACCTAT | 0.121
ATAGAGGG | -0.0393

Sequence | PBM E-score
ACTTCTCC | -0.213
GCGAGTGA | 0.08
AACATCAA | 0.247
ACTAAGAT | 0.0816
TGGTAAAA | 0.154
CGTAGGTC | -0.211
CGTCTCAC | 0.222
AATGCAAG | 0.122
CAATCCGC | 0.0698
CGAGAGAC | -0.0697
ATATATTG | 0.153
GAGCTGAA | -0.0532
ATTGGGCG | -0.00653
AATCACGC | -0.093
CTATTTAC | 0.00668
TCCCGCCA | 0.101
GGCTTATA | -0.0311
ACCGAGTA | -0.192
TATTGCGA | 0.253
CTGGTATA | -0.144
ATGCTTAA | 0.0449
CATCACGC | -0.119
AAGCTACA | -0.223
AAGATTAA | 0.11
GAAACCTA | 0.148

Sequence | PBM E-score
GACCCTTA | -0.128
CATTCCTC | 0.0999
GAGTCTGA | -0.0306
CATAGACA | -0.011
ATTTGTAC | -0.0801
TCATGTAA | 0.198
AAATGCGT | 0.188
AGCGGCCC | -0.196
ACTACAGT | 0.0382
CAAGCCTG | -0.0773
GCGTTCAC | -0.0168
ATGTTGCC | -0.0478
GCCTGTGA | -0.191
GTCGTCAC | 0.0775
ACGGTGAA | 0.186
CTAGATCC | -0.0448
CCTAAACC | -0.0234
AGCATGCT | -0.0883
CGACACAG | 0.0279
CCCAACAA | 0.0796
ATTATTAG | 0.031
GGTCTCAA | 0.0399
CTACGTTA | -0.0941
GTTGTTCA | -0.0893
TAGTACTA | 0.0943

Sequence | PBM E-score
GAATTAAA | 0.287
ACCGCCGG | 0.0778
ATTAGGTC | 0.243
AGCACTTA | -0.0481
CCACGGAG | 0.00151
AAGCTAAG | -0.193
TCCAAGAA | -0.0341
CACCCAGG | -0.0372
TTCTCAAA | 0.291
CCAGTTTC | 0.234
CTAAACCC | 0.123
AACTACCA | 0.105
GGTCGTCA | -0.0862
CACCACGG | -0.252
AAGCTTAA | 0.184
GCTCTGCA | -0.2
CACATACA | 0.0306
ATTTTGGG | 0.00909
CAAACTTA | 0.276
GCTGCAAA | 0.136
TTATGAAA | 0.431
AGCTCGTC | -0.268
ACAACTTC | 0.131
CGGCCTCA | 0.0417
GAATTAGA | 0.152

Sequence | PBM E-score
ACACTTTG | 0.0896
AACAACTT | 0.0876
GCCACGGA | -0.0989
CTCCCATC | 0.0151
CAGAGACA | -0.268
ACACCTCT | 0.0377
GACTATCC | -0.116
ATTAGTAG | 0.077
CCGGGTAC | -0.0322
CTCACCCA | -0.0141
CAACGACC | -0.144
GTGGGAAA | -0.0176
AGGACCCC | -0.156
CGGGCCCA | -0.162
CCGATTCA | -0.00586
ATTAGACC | 0.113
CCGCAAAA | 0.25
AACCCGAA | 0.207
ACCTCTTG | -0.049
TAGCACGA | -0.0764
TGCTACCA | -0.0899
CTACACTC | -0.0629
AGACCCGA | 0.142
CCGCGTCA | -0.13
AGCCTAGC | -0.193

Sequence | PBM E-score
AACCCTCT | -0.19
CCGATGCC | -0.014
ATTTGCGG | 0.148
TAGCGAGA | -0.0872
AATCGAAG | 0.177
CACTCCGG | 0.2
CAATCCTG | 0.131
ATGGCTGA | 0.0365
CGCCGGAC | -0.0359
CAGCCGCC | -0.0357
ACTAGAGC | -0.109
ACATAGGA | -0.0111
GCTCTCGA | -0.0609
GAGTTCGA | -0.038
AATCGGGG | 0.135
AATATAGC | 0.0583
AGAAGAAA | 0.0885
GCTAGCAA | -0.298
CGCGGGGC | 0.0924
AATTATCG | 0.219
TGCGCACA | -0.027
TACTAGTA | 0.0847
ATATTACC | 0.17
GAGGTCCC | -0.0333
ACCAAACG | 0.122

Sequence | PBM E-score
ACTCCAGT | 0.063
GAGTTTAC | -0.043
CTACTGTC | -0.134
ACTAACAT | 0.047
GCCCCTTA | -0.139
GCCCTAAA | -0.16
ACTCTTCG | -0.164
GCTAACTA | 0.0593
AGTACGAG | 0.00099
AACGGCGT | -0.0216
CGACTTAG | -0.0645
AAAGCGGG | -0.0943
AATCGAAA | 0.203
GCAACGAC | -0.176
CTCATGTA | 0.198
AGCAGATG | -0.0847
CCATTTCA | -0.06
CGCGACTC | 0.00144
TATAGAGA | -0.0992
CGTGACAC | 0.11
ATTTGAAG | 0.0968
GACCTACC | -0.137
CGTATTCA | 0.0428
ATATCGAC | 0.216
CGATTACG | -0.133

Sequence | PBM E-score
ATACCAGC | -0.145
AGGTTGAT | -0.0776
GAGACCAC | -0.114
CGATCGGA | -0.0201
AGTTTGTA | 0.106
CCGACTCA | -0.0229
CAAGAGTA | -0.0273
ACCAAGCT | -0.0594
CATGTTGG | 0.0695
GGCAATCA | -0.0163
CACCAGGG | -0.121
ACGAGTAT | -0.0253
AGTTGGAC | 0.0245
CTCCTTGA | -0.126
CCGTTAAC | -0.0496
GGGCCGCA | 0.0486
AGTCCCAG | -0.155
AAAAAATT | 0.197
CTAAGCCA | -0.178
CTGAGTAA | 0.0681
ATAATAAC | 0.252
ACTCCACG | -0.0982
ATACCCTG | -0.058
AGAATAAG | 0.107
GCCATCTA | -0.102

Sequence | PBM E-score
CCTGTAGA | 0.0485
AGATCAAA | 0.156
AACGCGCA | -0.051
ACTGCTGA | -0.19
ACAAACCA | 0.00217
AAATGAAG | 0.257
CAACCGGC | -0.029
ATTAGCTA | 0.0459
ATTCGCCC | -0.0527
ATAGCGCC | 0.0012
CAAGCAGA | -0.0198
ATGTGTAC | 0.0108
ATGAGCTG | -0.173
AGCACTAC | -0.147
ACCCTGCG | -0.0349
AAGTGCCT | -0.225
CCAGATAA | -0.0254
GGCATTTA | 0.0171
AACCTAAC | 0.00454
